Consider 50 sequences from paper PMC6451091.

This is one part of the list. For part of these data: At the low end of the ranking, values are background and their order means little. For part of these data: The protein was read in a cell extract, so binding may be indirect.

Common to all, as to settings: 20 mM HEPES pH 7.9, 100 mM NaCl, 1 mM DTT, 0.2 mg/mL BSA, 0.02% Triton X-100, 2% milk, 0.4 mg/mL salmon testes DNA; 1 h; temperature not stated; high values mean tight binding; double strand, one strand shown; sequences stand for … in GCCTAGCAC…GTGCTAGGTCTTGATTCGCTTGACGCTGCTG
The target of one assay is PU.1 (IVT) (UniProt P17947). As to the kind of experiment: protein-binding microarray (PBM).
In assay [1] the target is T1, FLI1 (endogenous, THP-1 nuclear extract) (UniProt Q01543).
T1 sequence: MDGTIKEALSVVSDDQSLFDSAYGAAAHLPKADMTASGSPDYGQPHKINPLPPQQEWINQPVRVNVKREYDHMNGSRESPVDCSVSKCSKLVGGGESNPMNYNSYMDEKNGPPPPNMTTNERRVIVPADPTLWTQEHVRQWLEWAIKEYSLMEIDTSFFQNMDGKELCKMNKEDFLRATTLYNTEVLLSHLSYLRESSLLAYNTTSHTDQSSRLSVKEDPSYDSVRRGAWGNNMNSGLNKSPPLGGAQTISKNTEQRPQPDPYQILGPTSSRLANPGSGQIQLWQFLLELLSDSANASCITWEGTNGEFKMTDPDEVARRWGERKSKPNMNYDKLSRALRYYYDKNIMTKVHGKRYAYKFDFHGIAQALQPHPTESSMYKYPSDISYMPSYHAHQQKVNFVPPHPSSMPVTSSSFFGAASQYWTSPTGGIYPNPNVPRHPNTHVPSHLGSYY
Kind of assay: nuclear extract protein-binding microarray (nextPBM).

Assay [2] concerns PU.1 (endogenous, THP-1 nuclear extract) + IRF8 (endogenous, THP-1 nuclear extract). The assay is described as above.

For TGAGAGGAGAAGTGCAACCT, the results for the binding signal (in the assay with PU.1 (IVT); in assay [1]; in assay [2]) were 0.689 z-score, -0.294 z-score and 1.29 z-score, respectively.

In the case of TGAGAGGAGAAATGAAACCT, the binding signal in the assay with PU.1 (IVT) was 0.39 z-score; in assay [1], 0.259 z-score; in assay [2], 9.4 z-score.

Consider GATAAGAGGAACTGAAAGCG, for which the binding signal in the assay with PU.1 (IVT) is 4.2 z-score; in assay [1], 1.61 z-score; in assay [2], 6.98 z-score.

In the case of TGAACAAGGAAGTGAAACTT, the binding signal with PU.1 (IVT) was 3.55 z-score; in assay [1] it was 2.95 z-score; in assay [2], 45 z-score.

For the sequence CATTTGTAGAAGTGAAACTC, the binding signal with PU.1 (IVT) was 0.601 z-score; in assay [1], -0.411 z-score; in assay [2], 26.4 z-score.

For CTGGCAGGGAAGTGAAAGCA, the binding signal with PU.1 (IVT) was 1.49 z-score; in assay [1], 1.04 z-score; in assay [2] it was 4.78 z-score.

For the sequence AAAAAAAGGAATTGAAAGTA, the binding signal with PU.1 (IVT) came out at 2.19 z-score; in assay [1] it was 0.731 z-score; in assay [2], 7.83 z-score.

In the case of GATAAGAGGAACTGCAAGCT, the binding signal with PU.1 (IVT) was 3.52 z-score; in assay [1], 1.36 z-score; in assay [2], -1.02 z-score.

In the case of AAAAGTAGGAAGTGAAACTA, the binding signal in the assay with PU.1 (IVT) is 5.32 z-score; in assay [1], 4.25 z-score; in assay [2], 67.8 z-score.

With AAAAAAAGGAAATAAAAGTA, the binding signal with PU.1 (IVT) was found to be 3.48 z-score; in assay [1], 1.74 z-score; in assay [2] it was 0.793 z-score.

As for ATGCCAGGGAAGTGAAAGCA, the binding signal with PU.1 (IVT) turned out to be 1.31 z-score; in assay [1], 0.724 z-score; in assay [2], 5.59 z-score.

Regarding TTAAGGAGGAACTGAAACCA, the binding signal with PU.1 (IVT) was found to be 2.65 z-score; in assay [1], 2.09 z-score; in assay [2] it was 32.1 z-score.

Turning to TGGCAGCGGAAGTGAAACTA, the values for the binding signal (with PU.1 (IVT); in assay [1]; in assay [2]) were 3.61 z-score, 5.01 z-score and 61.8 z-score, respectively.

Consider AAAAAAAGGAAATGACAGTA, for which the binding signal was 3.34 z-score in the assay with PU.1 (IVT), 2.24 z-score in assay [1] and -0.111 z-score in assay [2].

Turning to AAAAAAAGTAAATGAAAGTA, the binding signal in the assay with PU.1 (IVT) is -0.0555 z-score; in assay [1] it was -0.386 z-score; in assay [2] it was 3.09 z-score.

On to TGAAACAGGAAGTAAAACCA, for which the binding signal with PU.1 (IVT) amounted to 7.06 z-score; in assay [1] it was 4.95 z-score; in assay [2], 4.36 z-score.

Consider TGGCAGTGGAAGTGAAACTA, for which the binding signal with PU.1 (IVT) is 1.07 z-score; in assay [1] it was 1.21 z-score; in assay [2], 51.2 z-score.

Turning to TAAAGAAGGAACTGAAACCA, the values for the binding signal (in the assay with PU.1 (IVT); in assay [1]; in assay [2]) were 2.41 z-score, 1.56 z-score and 30.3 z-score, respectively.

Consider TTGCAGAGGAAGTGAAACTA, for which the binding signal with PU.1 (IVT) is 3.03 z-score; in assay [1], 3.48 z-score; in assay [2] it was 65.1 z-score.

As to CTGCCAGTGAAGTGAAAGCA, the binding signal was -0.423 z-score with PU.1 (IVT), -0.326 z-score in assay [1] and 3.62 z-score in assay [2].

In the case of GGAAGGCAGAAGTGAAAGCA, the binding signal with PU.1 (IVT) was found to be 0.862 z-score; in assay [1], 0.581 z-score; in assay [2], 5.56 z-score.

CAGGCAAGGAACTGAAACTC: the binding signal in the assay with PU.1 (IVT) amounted to 0.221 z-score; in assay [1] it was 0.242 z-score; in assay [2], 12.2 z-score.

On to CTGGCAGGGTACTGAAACTC, for which the binding signal in the assay with PU.1 (IVT) was 0.281 z-score; in assay [1] it was -0.225 z-score; in assay [2], 6.56 z-score.

For TGGCAGAGGAAGTGATACTA, the binding signal stood at 3.27 z-score with PU.1 (IVT), 2.87 z-score in assay [1] and 7.11 z-score in assay [2].

Turning to CTGCCAGGGAAGTGAATGCA, the binding signal stood at 1.12 z-score in the assay with PU.1 (IVT), 0.523 z-score in assay [1] and 0.735 z-score in assay [2].

As for ATAGGGAGGAAGTGAAACTT, the binding signal stood at 3.73 z-score with PU.1 (IVT), 3.62 z-score in assay [1] and 47.7 z-score in assay [2].

On to AAAAAAAGGAAATGATAGTA, for which the binding signal with PU.1 (IVT) was 3.36 z-score; in assay [1] it was 2.17 z-score; in assay [2], -0.762 z-score.

In the case of TGAAACAGGAAGTGAAACCA, the figures for the binding signal (with PU.1 (IVT); in assay [1]; in assay [2]) were 6.46 z-score, 5.62 z-score and 83.3 z-score, respectively.

Turning to GATAAGAGGAATTGAAAGCT, the binding signal in the assay with PU.1 (IVT) turned out to be 1.2 z-score; in assay [1] it was 0.422 z-score; in assay [2], 0.846 z-score.

For the sequence CAAAAAAGGAAATGAAAGTA, the binding signal in the assay with PU.1 (IVT) turned out to be 2.24 z-score; in assay [1] it was 2.41 z-score; in assay [2] it was 15.9 z-score.

On to GAGAAGGGGAAATGAAACTC, for which the binding signal came to 2.8 z-score with PU.1 (IVT), 2.4 z-score in assay [1] and 22.1 z-score in assay [2].

TAAAGGAGGAACTGAAGCCA: the binding signal with PU.1 (IVT) was found to be 3.31 z-score; in assay [1], 1.05 z-score; in assay [2] it was 0.544 z-score.

Regarding TCTTTGGGGAACTGAAACCA, the binding signal with PU.1 (IVT) stood at 2.23 z-score; in assay [1], 1.37 z-score; in assay [2], 26.9 z-score.

For the sequence GGTAGAGAGAAGTGAAAGTG, the binding signal in the assay with PU.1 (IVT) came to 1.05 z-score; in assay [1] it was 0.379 z-score; in assay [2] it was 18.4 z-score.

As for CTGCCAGGGAAGTGATAGCA, the values for the binding signal (with PU.1 (IVT); in assay [1]; in assay [2]) were 1.15 z-score, 0.603 z-score and -0.272 z-score, respectively.

On to AGAACAAGGAAGTGAAACTT, for which the binding signal with PU.1 (IVT) was 4.68 z-score; in assay [1], 2.79 z-score; in assay [2] it was 57.9 z-score.

Turning to TAGAATAGGAAGTGAAACTC, the binding signal with PU.1 (IVT) is 3.91 z-score; in assay [1] it was 3.71 z-score; in assay [2], 53 z-score.

On to AGAAAGAGGAAGGGAAACTA, for which the binding signal stood at 4.07 z-score with PU.1 (IVT), 2.35 z-score in assay [1] and 13.1 z-score in assay [2].

With TAAAGGAGGAACTGGAACCA, the binding signal with PU.1 (IVT) stood at 3.36 z-score; in assay [1] it was 1.17 z-score; in assay [2], 0.84 z-score.

Consider TTTAAAGGGAAATGAAACTG, for which the binding signal with PU.1 (IVT) turned out to be 1.39 z-score; in assay [1], 1.75 z-score; in assay [2], 23.1 z-score.

Regarding CTGCCAGGGAAGTGACAGCA, the binding signal was 1.14 z-score with PU.1 (IVT), 0.765 z-score in assay [1] and -0.2 z-score in assay [2].

In the case of CCCAACAGGAAGTGAAACAG, the binding signal in the assay with PU.1 (IVT) is 4.25 z-score; in assay [1], 4.98 z-score; in assay [2], 9.81 z-score.

As for CTCCAGAGGAAGTGAAACTT, the binding signal with PU.1 (IVT) came to 2.79 z-score; in assay [1], 3.16 z-score; in assay [2], 43.6 z-score.

Consider TGAAACCGGAAGTGAAACCA, for which the binding signal worked out at 5.71 z-score in the assay with PU.1 (IVT), 8.03 z-score in assay [1] and 71.9 z-score in assay [2].

On to GGAATTAGGAAGTGAAACTT, for which the binding signal with PU.1 (IVT) was found to be 4.2 z-score; in assay [1], 3.3 z-score; in assay [2], 46.8 z-score.

As to TAAAGGATGAACTGAAACCA, the binding signal was -0.0618 z-score with PU.1 (IVT), 0.472 z-score in assay [1] and 14.4 z-score in assay [2].

As to GAGAAGAGGAACTGAAACTA, the values for the binding signal (in the assay with PU.1 (IVT); in assay [1]; in assay [2]) were 4.41 z-score, 3.1 z-score and 52.2 z-score, respectively.

Regarding CGAGAGGAGAAGTGAAACCT, the binding signal in the assay with PU.1 (IVT) turned out to be 1.39 z-score; in assay [1], 0.764 z-score; in assay [2] it was 26.3 z-score.

TGAAACAGGAAGTGAAACCG: the results for the binding signal (in the assay with PU.1 (IVT); in assay [1]; in assay [2]) were 7.08 z-score, 5.87 z-score and 65.1 z-score, respectively.

AAAAAAAGGAAATGAAAGCA: the values for the binding signal (in the assay with PU.1 (IVT); in assay [1]; in assay [2]) were 3.26 z-score, 2.24 z-score and 4.66 z-score, respectively.
